Eleven molecules from the antibiotic and cytotoxicity screens of Wong et al. (2023) can be followed below.

Some of the results follow.

One test concerns HSkMC. In words: cytotoxicity call (relative viability < 0.9). Conditions: 10 µM.
For a further test, the system named is HepG2. In words: cytotoxicity call (relative viability < 0.9). Conditions: 10 µM.
The next test deals with S. aureus RN4220. In words: growth inhibition call (relative growth <= 0.2). Conditions: 50 µM.

Regarding `C[C@]12C(=O)N(CCCCCO)[C@@H]3C(=O)N(c4ccc(Cl)cc4)CC=C[C@]31O[C@@H]1/C=C\CCCOC(=O)[C@H]12`, the cytotoxicity call in the test with HSkMC and in the test with HepG2 was “inactive” each time. For the same molecule, in the test on S. aureus RN4220, the growth inhibition call is “inactive”.
`C[C@@H]1CN([C@@H](C)CO)C(=O)c2cc(N(C)C)ccc2O[C@@H](C)CCCCO[C@H]1CN(C)S(C)(=O)=O`: the cytotoxicity call with HSkMC and in the test on HepG2 was “inactive” throughout. The growth inhibition call with S. aureus RN4220 is “inactive”.
On to `C[C@@H]1CCCCO[C@H](CN(C)C(=O)C2CCCCC2)[C@H](C)CN([C@H](C)CO)C(=O)c2cc(NC(=O)CCC(F)(F)F)ccc2O1`, for which the cytotoxicity call in the test on HSkMC and in the test on HepG2 was “inactive” each time. Also, the growth inhibition call in the test with S. aureus RN4220 is “inactive”.
`CO[C@H]1CN(C)C(=O)c2cc(NS(=O)(=O)CC(F)(F)F)ccc2OC[C@@H](C)N(C(=O)c2ccc3c(c2)OCO3)C[C@H]1C`: the cytotoxicity call with HSkMC and with HepG2 was “inactive” in each case. In addition, in the test on S. aureus RN4220, the growth inhibition call is “inactive”.
For the molecule `CCNC(=O)c1coc(C)n1`, the cytotoxicity call in the test with HSkMC and with HepG2 was “inactive” each time. In the test with S. aureus RN4220, the growth inhibition call is “inactive”.
With `N#CC1(C#N)[C@H](c2ccccc2)[C@@H]1C(N)=O`, the cytotoxicity call with HSkMC and in the test with HepG2 was “inactive” each time. In addition, the growth inhibition call in the test on S. aureus RN4220 is “inactive”.
Regarding `CCOC(=O)[C@@](C)(N)Cc1ccc(O)c(O)c1`, in the test with HSkMC, the cytotoxicity call is “active”. In addition, the cytotoxicity call with HepG2 was “inactive”. Besides, the growth inhibition call in the test with S. aureus RN4220 is “inactive”.
Take `CN(C)c1ccc(O)c2c1CC1CC3C(N(C)C)C(O)=C(C(N)=O)C(=O)C3(O)C(O)=C1C2=O.Cl` (stereo not drawn): the cytotoxicity call with HSkMC and with HepG2 was “inactive” in each case. For the same molecule, in the test on S. aureus RN4220, the growth inhibition call is “inactive”.
Consider `C[C@@H]1CN([C@@H](C)CO)C(=O)c2cc(NC(=O)C3CCCCC3)ccc2O[C@@H]1CN(C)C(=O)Nc1cccc2ccccc12`, for which the cytotoxicity call with HSkMC and in the test on HepG2 was “inactive” in each case. Moreover, the growth inhibition call with S. aureus RN4220 was “inactive”.
In the case of `C[C@H](O)[C@H](O)[C@@H](O)[C@@H](O)/C=N/NC(=O)c1ccccn1`, the cytotoxicity call in the test on HSkMC and in the test with HepG2 was “inactive” throughout. The growth inhibition call in the test with S. aureus RN4220 was “inactive”.
In the case of `Cc1ccc(S(=O)(=O)Nc2ccc3c(c2)C(=O)N([C@H](C)CO)C[C@H](C)[C@H](CN(C)Cc2ccncc2)OCCCC[C@H](C)O3)cc1`, the cytotoxicity call in the test on HSkMC (human skeletal muscle cells) and with HepG2 was “inactive” each time. Besides, the growth inhibition call with S. aureus RN4220 was “inactive”.
